# Data published in paper PMC4336329 (PLoS ONE, 2015).
# About 2,200 (0.71%) of roughly 310,000 compounds showed an effect of 50% or more. The effect is printed as a negative number. The list shows a part of the results.
# Biological target: human ether-à-go-go-related gene (hERG) potassium channel (human, UniProt Q12809)
# Test: primary screen, population patch clamp on CHO cells stably expressing hERG
# Sequence of human ether-à-go-go-related gene (hERG) potassium channel (Q12809 whole entry, looked up): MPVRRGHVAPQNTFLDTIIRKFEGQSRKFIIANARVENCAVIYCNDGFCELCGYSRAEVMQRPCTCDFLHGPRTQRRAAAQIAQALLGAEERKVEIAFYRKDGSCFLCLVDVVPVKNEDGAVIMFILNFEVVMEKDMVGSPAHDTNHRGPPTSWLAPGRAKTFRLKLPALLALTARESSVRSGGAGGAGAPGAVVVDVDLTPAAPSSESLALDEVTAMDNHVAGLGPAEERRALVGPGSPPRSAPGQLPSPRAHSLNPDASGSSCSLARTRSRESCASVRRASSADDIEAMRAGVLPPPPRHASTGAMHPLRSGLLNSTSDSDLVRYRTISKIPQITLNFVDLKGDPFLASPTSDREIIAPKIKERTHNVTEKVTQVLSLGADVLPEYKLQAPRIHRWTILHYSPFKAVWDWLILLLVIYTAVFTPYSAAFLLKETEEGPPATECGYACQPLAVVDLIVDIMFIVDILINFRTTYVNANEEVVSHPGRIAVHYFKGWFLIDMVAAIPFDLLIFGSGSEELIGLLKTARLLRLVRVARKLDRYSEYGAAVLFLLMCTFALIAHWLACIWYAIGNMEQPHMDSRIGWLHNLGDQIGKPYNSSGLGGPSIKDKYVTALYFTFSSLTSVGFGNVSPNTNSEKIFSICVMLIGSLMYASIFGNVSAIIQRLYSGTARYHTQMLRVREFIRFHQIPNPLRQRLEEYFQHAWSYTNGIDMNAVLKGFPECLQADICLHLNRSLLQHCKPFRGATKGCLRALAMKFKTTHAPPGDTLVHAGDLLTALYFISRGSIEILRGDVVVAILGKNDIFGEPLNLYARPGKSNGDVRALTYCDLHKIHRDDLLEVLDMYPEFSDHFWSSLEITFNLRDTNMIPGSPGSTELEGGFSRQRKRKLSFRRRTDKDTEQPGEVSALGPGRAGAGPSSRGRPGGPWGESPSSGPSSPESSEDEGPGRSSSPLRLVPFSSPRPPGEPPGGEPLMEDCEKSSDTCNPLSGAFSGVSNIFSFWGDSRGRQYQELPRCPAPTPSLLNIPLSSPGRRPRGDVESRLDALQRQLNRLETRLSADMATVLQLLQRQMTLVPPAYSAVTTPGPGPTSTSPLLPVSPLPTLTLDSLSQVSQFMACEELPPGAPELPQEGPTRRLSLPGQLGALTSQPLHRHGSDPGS
row,SMILES,"hERG current change (%, negative = inhibition) at 1uM"
1,CCOC(=O)C1=C(C)N=C2SC(C(=O)OC)=CC(=O)N2C1c1ccc(F)cc1 (stereo not drawn),12.9%
2,O=C(N1CCOCC1)N1CCC(n2nnc3ccccc32)CC1,5.69%
3,Cc1nc2cc(-c3cccs3)nn2c(NCC(C)(C)CN(C)C)c1C,6.04%
4,O=C(CP(=O)(c1ccccc1)c1ccccc1)Nc1nc2ccc(Cl)cc2s1,4.82%
5,O=C(CN1CCC(C(=O)c2ccc(Cl)cc2)CC1)Nc1ccc2c(c1)OCCO2,-1.86%
6,COc1ccc(S(=O)(=O)N2CCC(C(=O)N3CCc4ccccc4C3)CC2)cc1C,-1%
7,O=C(NCC1CCCCC1)C12CN(Cc3ccccc3)CC1C(c1cccc([N+](=O)[O-])c1)=NO2 (stereo not drawn),6.52%
8,CCOC(=O)C(C)/C(C)=N/NC(=O)CCC(=O)Nc1cc(C)ccc1C (stereo not drawn),12.2%
9,COc1ccnc(Oc2ccc(F)cc2)c1-c1ncn[nH]1,14%
10,Cc1cccc(OCC(O)CN2CCN(C3CCCCC3)CC2)c1.Cl (stereo not drawn),-21.7%
11,CCN(CC)CCN1C(=O)C2C(C(=O)Nc3cccc(C)c3)C3C=CC2(O3)C1C(=O)NC1CCCC(C)C1C (stereo not drawn),5.74%
12,COC(=O)NNC(=O)c1ccc(C(C)(C)C)cc1,15.6%
13,O=C(NNC(=O)c1ccccc1Br)c1ccccc1Cl,15.3%
14,Cc1ccc(C)c(N(CC(=O)NCc2ccco2)C(=O)CCC(=O)Nc2nccs2)c1,17.2%
15,NC[C@@H]1O[C@H](O[C@H]2[C@@H](O)[C@H](O[C@@H]3[C@@H](O)[C@H](N)C[C@H](N)[C@H]3O[C@H]3O[C@H](CO)[C@@H](O)[C@H](O)[C@H]3N)O[C@@H]2CO)[C@H](N)[C@@H](O)[C@@H]1O.O=S(=O)(O)O,23.3%
16,NC(=O)CN1CCOCCN(CC(N)=O)CCOCC1,19.1%
17,CCOc1ccc(N=Cc2c(O)n(-c3ccc(C)c(C)c3)c(=O)[nH]c2=O)cc1,-0.972%
18,CCC(=O)c1ccc(OCC(O)CNC2CCCC2)cc1 (stereo not drawn),9.53%
19,COc1cc(C(=O)N2CCN(C(=O)C3CC3)CC2)cc(OC)c1OC,4.43%
20,COc1ccccc1NC(=O)Nc1ccnn1C1CCCCC1,3.93%
21,CCOC(=O)Cc1csc(NC(NC(=O)OCC)(C(=O)OCC)C(F)(F)F)n1 (stereo not drawn),5.2%
22,CC(=O)Nc1ccc(S(=O)(=O)N(C)CC(=O)OCC(=O)N2CCCCC2)cc1,2.27%

row,SMILES,"hERG current change (%, negative = inhibition) at 1uM"
1,CC(C#N)CCC#N (stereo not drawn),14.9%
2,CCOc1ccc2c(C)nc(NC3=NC(C)(C)C=C(C)N3)nc2c1,-11.6%
3,O=C(CN1C(=O)C2C3C=CC(C3)C2C1=O)NCCN1CCCc2ccccc21 (stereo not drawn),0.0655%
4,Cc1ccc2cc(C(c3nnnn3C(C)(C)C)N3CCCCCC3)c(=O)[nH]c2c1 (stereo not drawn),3.68%
5,Cc1ccc(-c2nnn(CC(=O)Nc3ccccc3N3CCOCC3)n2)cc1,9.87%
6,COc1ccc(C(=O)COc2ccc(C)cc2NC(C)=O)cc1,9.85%
7,CCn1c(CC(=O)Nc2ccccc2)n[nH]c1=S,7.45%
8,COC(=O)c1cc(Br)c(=O)n(-c2ccc(OC)cc2)c1,5.39%
9,CCCCCCSc1cc(-c2nc3cnccn3c2NCc2ccccc2)ccc1OC.O=C(O)C(F)(F)F,8.24%
10,Cc1cccc(C(=O)Nc2ccc(C(=O)/C=C/c3cccs3)cc2)c1,3.67%
11,CCCCn1c(=O)c(-[n+]2ccccc2)c([O-])c2ccccc21,4.66%
12,O=C(c1ccc(N2CCCCCC2)c([N+](=O)[O-])c1)N1CCC2(CC1)OCCO2,-3.8%
13,COc1ccccc1NC(=S)NCC1CCCO1 (stereo not drawn),15%
14,O=c1[nH]c(CS(=O)(=O)c2ccccc2)nc2ccccc12,3.96%
15,C/C(Cc1ccccc1)=N\NC(=O)CNC(=O)Cc1ccccc1,15.8%
16,CCOC(=O)C1(Cc2cccc(OC)c2)CCCN(C(=O)c2cc(CC(C)C)[nH]n2)C1 (stereo not drawn),-0.175%
17,CN(C1CCCCC1)S(=O)(=O)c1cc2c3c(c1)CCN3C(=O)CC2,1.53%
18,O=C1c2ccccc2NC(c2ccc(O)cc2)N1c1ccccc1 (stereo not drawn),-0.795%
19,CCOC(=O)CC(N)c1cccc([N+](=O)[O-])c1.Cl (stereo not drawn),9.88%
20,COc1ccc(/C=C2/SC(=O)N(CCC(=O)Nc3ccc(C)cc3)C2=O)cc1OC,3.27%
21,COC(=O)C1=C(c2cc3ccccc3o2)C[C@@H]2CC[C@H]1N2C(=O)NC1CCCCC1,-7.33%
22,CN(C)C(/C=C/Nc1ccc([N+](=O)[O-])cc1)=C(C#N)C#N,-10.8%

row,SMILES,"hERG current change (%, negative = inhibition) at 1uM"
1,O=C(N/N=C/c1c[nH]c2ccc(Br)cc12)C1CC1,9.55%
2,COC(=O)c1ccc(CSc2nnc(NC(=O)C3CC(=O)N(Cc4ccc(C)cc4)C3)s2)cc1 (stereo not drawn),9.81%
3,COc1ccccc1C(=O)NCCC(=O)NCC(C)(C)N1CCOCC1,-0.451%
4,CCOC(=O)Cc1csc(NC(=O)CCCCCN2C(=O)c3cccc4cccc(c34)C2=O)n1,8.73%
5,COc1ccc(N(CCOc2ccccc2)S(=O)(=O)c2ccccc2)cc1,12%
6,Cn1c(=NC(=O)C(C)(C)C)sc2cccc(F)c21,3.79%
7,O=C(Nc1cccc(O)c1)c1ccc(C(F)(F)F)cc1,15.8%
8,O=C(c1cc2ccccc2[nH]1)N(Cc1cccnc1)CC1CCCN(C2CCCCC2)C1 (stereo not drawn),-49.6%
9,CCOC(=O)C(/C=C(\C#N)C(=O)OCC)=C(/N)N1CCN(c2c(C)cccc2C)CC1,13.4%
10,CCOC(=O)c1ccc(NC(=O)CSc2nncn2-c2cccnc2)cc1,14%
11,Cc1ccccc1NS(=O)(=O)c1ccc(C(=O)N2CCN(c3ccccn3)CC2)cc1,5.6%
12,COc1ccc(/C=C/C(=O)c2ccc(NC3=NCCCS3)cc2)cc1OC,3.64%
13,Cc1cccnc1NC(=O)CCCNC(=O)c1ccc(Cl)cc1,-4.42%
14,COc1ccc(CCC(=O)NC2CCCCC2)cc1,-9.69%
15,CN(C)S(=O)(=O)c1ccc(NC(=O)CN2CCN(C(c3ccccc3)c3ccccc3)CC2)cc1,8.88%
16,COc1ccccc1NC(=O)c1ccccc1NS(=O)(=O)c1cccs1,10.2%
17,CCn1cc(CN2CCC(n3nccc3NC(=O)c3ccc4c(c3)OCO4)CC2)c(C)n1,10.9%
18,Cc1c(Cl)cccc1NC(=O)CCN1CCN(C)CC1,5.03%
19,O=C(Nc1ccnn1C1CCN(Cc2cc(Cl)ccc2O)CC1)c1cccnc1,13.1%
20,O=C(CSc1nnc(NC(=O)c2c(F)cccc2Cl)s1)Nc1ccccc1F,13.3%
21,c1csc(-c2ncc3ccccn23)c1,12.1%
22,Cl.O=[N+]([O-])c1cc(Cl)cc(C2=NCCN2)c1,0.328%

row,SMILES,"hERG current change (%, negative = inhibition) at 1uM"
1,COc1ccc(S(=O)(=O)NNc2nc(C)cc(C)n2)cc1Br,11.3%
2,CN(c1ccccc1C(=O)N1CCc2ccccc2C1)S(C)(=O)=O,8.89%
3,CS(=O)(=O)NN1C(=O)c2ccccc2NC12CCCC2,13.7%
4,COc1ccc(Cl)cc1NS(=O)(=O)c1c(C)nc2sccn2c1=O,11.5%
5,NNC(=O)c1oc2nc(-c3ccccc3)cc(-c3ccccc3)c2c1N,11.1%
6,Cc1ccc(CNC(=O)C2CC(c3cccc([N+](=O)[O-])c3)=NO2)o1 (stereo not drawn),-1.58%
7,CCc1ccc(C(=O)C(C)OC(=O)Cn2[nH]c(=O)c3ccccc3c2=O)cc1 (stereo not drawn),8.79%
8,O=C(COC(=O)c1cc(S(=O)(=O)N2CCOCC2)c(Cl)cc1Cl)c1ccc[nH]1,4.82%
9,COc1cc(Cl)ccc1NC(=S)N(CCN(C)C)C(C)c1ccncc1 (stereo not drawn),0.055%
10,CCOC(=O)C(CC)Sc1nc2c(c(=O)[nH]c(=O)n2C)n1C/C=C(/C)Cl (stereo not drawn),-56.9%
11,CC(C)CN1CCN(Cc2ccc(F)cc2Cl)CC1CCO (stereo not drawn),5.92%
12,O=C(c1ccc2c(c1)CCN2S(=O)(=O)c1ccccc1)N1CCN(c2ccc(F)cc2)CC1,6.83%
13,Cc1c(C=C2C(=O)N(C)C(=O)N(C)C2=O)c(=O)n(-c2ccccc2)n1C,16.3%
14,COC(=O)c1ccccc1NC(=O)C12CC3CC(C1)CC(n1cnc(Cl)n1)(C3)C2,-0.0768%
15,C/C(=C(\C#N)C(=O)NCCCN1CCOCC1)N(C)C,12.2%
16,Cc1c(CC(=O)O)c(=O)oc2c(C)c3occ(-c4ccccc4)c3cc12,19.9%
17,CC(=O)c1ccc(N2CCCCC2)c(F)c1,18.2%
18,O=C1C=C(c2ccc3[nH]ccc3c2)C[C@@H](c2ccc(Cl)cc2)C1,-0.759%
19,O=C(COc1ccc2cc(Br)ccc2c1Br)N1CCOCC1,12.6%
20,CCOC(=O)C1CCN(C(=O)Cc2c(F)cccc2Cl)CC1,11.3%
21,NS(=O)(=O)c1ccc(CNC(=O)c2cccc(S(=O)(=O)N3CCc4ccccc43)c2)cc1,8.83%
